Experimental data taken from the supplement of paper PMC2702839.
Where a name gives a salt, the structure may show the parent alone. This is one part of the list.

Each molecule was assayed on Schistosoma mansoni schistosomula (assay: phenotypic hit in primary schistosomula screen (any phenotype vs DMSO control) (binary (1 = hit, 0 = no phenotype)); higher = active (phenotype induced)). Conditions: 1 µM; time (d): 7.
With `COc1cc(OC)c2ccc(=O)oc2c1` [citropten] the phenotypic hit was inactive: 0.
`Cc1cc(O)c2c(c1O)C(=O)c1c(O)cc(C)c(O)c1C2=O` [1,4,5,8-tetrahydroxy-2,6-dimethylanthroquinone] was tested, and the phenotypic hit was inactive: 0.
For `COC(=O)C[C@H]1C2(C)CC34OC5(C)O[C@@]6([C@H](OC(C)=O)C(OC(C)=O)[C@]7(C)C(/C(=C(/O)C(C)C)C(=O)O[C@H]7c7ccoc7)[C@@]6(O5)[C@H](OC(C)=O)[C@@]3(O)C2OC(=O)C(C)C)[C@]14C` (stereo not given in full) [bussein], the phenotypic hit was inactive: 0.
For `CC(=O)Nc1ccc(OC(=O)c2ccccc2O)cc1` [acetaminosalol], the phenotypic hit was inactive: 0.
In the case of `CCCOc1ccccc1-c1nc2[nH]nnc2c(=O)[nH]1` [Zaprinast], the phenotypic hit is reported as inactive: 0.
`CC(C)=CCC1=C(O)C(=O)c2ccccc2C1=O` [lapachol] was tested, and the phenotypic hit was inactive: 0.
For `COc1ccc(Cl)cc1C(=O)NCCc1ccc(S(=O)(=O)NC(=O)NC2CCCCC2)cc1` [Glibenclamide], the phenotypic hit was inactive: 0.
With `COC(=O)c1c(C)c2c(c(C)c1OC)OC(=O)c1c(C)c(Cl)c(OC)c(Cl)c1O2` [leoidin dimethyl ether] the phenotypic hit was inactive: 0.
With `NCCC(=O)N[C@@H](Cc1c[nH]cn1)C(=O)O` [carnosine] the phenotypic hit was inactive: 0.
For `Cc1cc(C)nc(NS(=O)(=O)c2ccc(N)cc2)n1` [sulfamethazine], the phenotypic hit was inactive: 0.
With `CC(C)=CCc1c2c(c3occ(-c4ccc(O)c(O)c4)c(=O)c3c1O)C=CC(C)(C)O2` [pomiferin] the phenotypic hit was inactive: 0.
`COc1cc(NS(=O)(=O)c2ccc(N)cc2)ncn1` [sulfamonomethoxine] was tested, and the phenotypic hit was inactive: 0.
In the case of `CC1(C)O[C@@H]2C[C@H]3[C@@H]4C[C@H](F)C5=CC(=O)C=C[C@]5(C)[C@@]4(F)[C@@H](O)C[C@]3(C)[C@]2(C(=O)CO)O1` [fluocinolone acetonide], the phenotypic hit is reported as inactive: 0.
For `CN(C(=O)CN(CCO)CC(=O)N(C)C(C)(C)Cc1ccccc1)C(C)(C)Cc1ccccc1` [oxethazaine], the phenotypic hit was inactive: 0.
For `c1coc(CNc2ncnc3[nH]cnc23)c1` [kinetin], the phenotypic hit was inactive: 0.
For `CC(=O)Oc1cc(-c2coc3cc(OC(C)=O)c(OC(C)=O)c(OC(C)=O)c3c2=O)cc(OC(C)=O)c1OC(C)=O` [iriginol hexaaceatate], the phenotypic hit was inactive: 0.
For `O=c1oc2cc(O)ccc2s1` [thioxolone], the phenotypic hit was inactive: 0.
For `CN/C(=N\CCSCc1nc[nH]c1C)NC#N` [Cimetidine], the phenotypic hit was inactive: 0.
`N[C@@H](CSCSC[C@H](N)C(=O)O)C(=O)O` [djenkolic acid] was tested, and the phenotypic hit was inactive: 0.
With `O=C(O)c1cc2cc(Cc3cccnc3)ccc2o1` [furegrelate sodium] the phenotypic hit was inactive: 0.
With `CC(=O)O[C@@H]1C=C[C@]2(C)C(C[C@@H](OC(C)=O)[C@]3(C)C4=CC(=O)O[C@H](c5ccoc5)[C@@]4(C)CCC23)C1(C)C` (stereo not given in full) [deoxygedunol acetate] the phenotypic hit was inactive: 0.
With `C[C@@H]1[C@H]2[C@H](O[C@@H]3O[C@H](CO)[C@@H](O)[C@H](O)[C@H]3O)OC=C(C(=O)O)[C@H]2C[C@@H]1O` [loganic acid] the phenotypic hit was inactive: 0.
For `O=C(O)c1cc(/N=N/c2ccc(S(=O)(=O)Nc3ccccn3)cc2)ccc1O` [sulfasalazine], the phenotypic hit was inactive: 0.
With `CC(N)CCCC(C)(C)O` (stereo not given) [heptaminol hydrochloride] the phenotypic hit was inactive: 0.
For `Cc1cc(O)cc(C)c1Cl` [chloroxylenol], the phenotypic hit was inactive: 0.
`Oc1cccc(O)c1` [resorcinol] was tested, and the phenotypic hit was inactive: 0.
With `O=C(O)c1cc(=O)c2c(Cl)cc(Cl)cc2[nH]1` [5,7-Dichlorokynurenic acid] the phenotypic hit was inactive: 0.
In the case of `C=C1CCC(C2CC(=O)OC2=O)C(=O)CCC2C1CC2(C)C` (stereo not given), the phenotypic hit is reported as inactive: 0.
With `NC(=O)CC[C@H](N)C(=O)O` [L-Glutamine] the phenotypic hit was inactive: 0.
For `COc1ccccc1/C=C/C(=O)O` [coumarinic acid methyl ether], the phenotypic hit was inactive: 0.
`CC(C)OC(=O)C(C)(C)Oc1ccc(C(=O)c2ccc(Cl)cc2)cc1` [fenofibrate] was tested, and the phenotypic hit was inactive: 0.
`NC(=O)c1cnccn1` [pyrazinamide] was tested, and the phenotypic hit was inactive: 0.
For `O=c1c(-c2ccccc2)coc2cc(O)cc(O)c12` [5,7-dihydroxyisoflavone], the phenotypic hit was inactive: 0.
With `Cc1nc2ccccn2c(=O)c1CCN1CCC(C(=O)c2ccc(F)cc2)CC1` [Pirenperone] the phenotypic hit was inactive: 0.
In the case of `CCCn1c(=O)c2[nH]c(C3CCCC3)nc2n(CCC)c1=O` [8-Cyclopentyl-1,3-dipropylxanthine], the phenotypic hit is reported as inactive: 0.
`C=C(C)[C@@H]1CC[C@]2(CO)CC[C@]3(C)[C@H](CC[C@@H]4[C@@]5(C)CC[C@H](O)C(C)(C)[C@@H]5CC[C@]43C)[C@@H]12` [betulin] was tested, and the phenotypic hit was inactive: 0.
In the case of `C/C=C/c1ccc(OC)cc1` [anethole], the phenotypic hit is reported as inactive: 0.
In the case of `CCN1CCN(C(=O)NC(C(=O)NC2C(=O)N3C(C(=O)O)=C(CSc4nnnn4C)CSC23)c2ccc(O)cc2)C(=O)C1=O` (stereo not given) [cefoperazole sodium], the phenotypic hit is reported as inactive: 0.
`O[C@H]1[C@H](O)[C@@H](O)[C@H](O)[C@@H](O)[C@H]1O` [inositol] was tested, and the phenotypic hit was inactive: 0.
`COc1cc2c(cc1OC)[C@@H]1C(=O)c3c(O)cc4c(c3O[C@@H]1CO2)C=CC(C)(C)O4` [alpha-toxicarol] was tested, and the phenotypic hit was inactive: 0.
`COc1ccc2c(c1)CC[C@@H]1[C@@H]2CC[C@]2(C)[C@@H](O)CC[C@@H]12` [estradiol methyl ether] was tested, and the phenotypic hit was inactive: 0.
In the case of `CC(=O)O[C@H]1C(=O)[C@@]2(C)[C@H]([C@H](OC(=O)c3ccccc3)[C@]3(O)C[C@H](OC(=O)[C@H](O)[C@@H](NC(=O)c4ccccc4)c4ccccc4)C(C)=C1C3(C)C)[C@]1(OC(C)=O)CO[C@@H]1C[C@@H]2O` [Taxol], the phenotypic hit is reported as active: 1.
For `C/C=C(/C(=C/C)c1ccc(O)cc1)c1ccc(O)cc1` [dienestrol], the phenotypic hit was inactive: 0.
For `COC(=O)c1c(C)cc(OC(=O)c2c(C)cc(O)c(C=O)c2O)c(C)c1O` [atranorin], the phenotypic hit was inactive: 0.
For `O=C(O)c1ccccc1OP(=O)(O)O` [fosfosal], the phenotypic hit was inactive: 0.
For `CC1=C(/C=C/C(C)=C/C=C/C(C)=C/CO)C(C)(C)CCC1` [retinol], the phenotypic hit was inactive: 0.
For `CC(=O)OC1CC[C@@]2(C)C(CC[C@]3(C)C2CCC2C4CC(C)(C)CCC4(C(=O)O)CC[C@]23C)C1(C)C` (stereo not given in full) [oleananoic acid acetate], the phenotypic hit was inactive: 0.
For `Nc1cc(N2CCCCC2)nc(N)[n+]1[O-]` [Minoxidil], the phenotypic hit was inactive: 0.
With `O=C(/C=C/c1ccccc1)c1ccc(O[C@@H]2O[C@H](CO)[C@@H](O)[C@H](O)[C@H]2O)cc1O` [2',4'-dihydroxychalcone 4'-glucoside] the phenotypic hit was inactive: 0.
In the case of `C=C[C@H]1CN2CC[C@H]1C[C@H]2[C@H](O)c1ccnc2ccc(OC)cc12` [quinine sulfate], the phenotypic hit is reported as inactive: 0.
With `CC1(C)S[C@@H]2[C@H](NC(=O)[C@H](N)c3ccccc3)C(=O)N2[C@H]1C(=O)O` [ampicillin sodium] the phenotypic hit was inactive: 0.
For `CC1/C(=N/O)C[C@@H]2C[C@H]1C2(C)C` (stereo not given in full) [3-pinanone oxime], the phenotypic hit was inactive: 0.
For `CC(=O)NCCCCCC(=O)O` [acexamic acid], the phenotypic hit was inactive: 0.
For `O=c1n(CCCN2CCN(c3cccc(Cl)c3)CC2)nc2ccccn12` [Trazodone hydrochloride], the phenotypic hit was inactive: 0.
In the case of `CC1(C)OC(=O)C=CC2(C)C1CC(O)C1(C)C2CCC2(C)C(c3ccoc3)OC(=O)C3OC321` (stereo not given) [obacunol], the phenotypic hit is reported as inactive: 0.
In the case of `COc1ccc([C@@H](C)C(=O)c2ccc(O)cc2O)cc1` [angolensin (r)], the phenotypic hit is reported as inactive: 0.
For `O=c1oc2c(O)c(O)cc3c(=O)oc4c(O)c(O)cc1c4c23` [ellagic acid], the phenotypic hit was inactive: 0.
`NC(=O)NCCC[C@H](N)C(=O)O` [citrulline] was tested, and the phenotypic hit was inactive: 0.
With `COc1ccc(-c2coc3cc(OC(C)=O)cc(OC(C)=O)c3c2=O)cc1` [biochanin a diacetate] the phenotypic hit was inactive: 0.
For `CC(=O)CC(c1ccccc1)c1c(O)c2ccccc2oc1=O` (stereo not given) [warfarin], the phenotypic hit was inactive: 0.
`O=C1NS(=O)(=O)c2ccccc21` [saccharin] was tested, and the phenotypic hit was inactive: 0.
For `NS(=O)(=O)c1cc2c(cc1Cl)NC(C1CC3C=CC1C3)NS2(=O)=O` (stereo not given) [Cyclothiazide], the phenotypic hit was inactive: 0.
With `CCN(CC)CC(=O)Nc1c(C)cccc1C` [Lidocaine hydrochloride] the phenotypic hit was inactive: 0.
`COC(=O)C[C@H]1C(C)(C)[C@H](O)[C@@H]2CC3=C4CC(O)O[C@@H](c5ccoc5)[C@@]4(C)CCC3[C@]1(C)C2=O` (stereo partly drawn) [3,16-dideoxymexicanolide-3alpha-diol] was tested, and the phenotypic hit was inactive: 0.
With `COC(=O)C1=CO[C@@H](C)[C@H]2CN3CCc4c([nH]c5ccccc45)[C@@H]3C[C@H]12` [ajmalicine] the phenotypic hit was inactive: 0.
`c1ccc2c(CC3=NCCN3)cccc2c1` [naphazoline hydrochloride] was tested, and the phenotypic hit was inactive: 0.
In the case of `CC(=O)OCC(=O)[C@@]12OC(C)(C)O[C@@H]1C[C@H]1[C@@H]3C[C@H](F)C4=CC(=O)C=C[C@]4(C)[C@@]3(F)[C@@H](O)C[C@@]12C` [fluocinonide], the phenotypic hit is reported as inactive: 0.
`C=CC1=C(C(=O)O)N2C(=O)[C@@H](NC(=O)/C(=N\O)c3csc(N)n3)[C@H]2SC1` [cefdinir] was tested, and the phenotypic hit was inactive: 0.
With `OCc1ccccc1O[C@@H]1O[C@H](CO)[C@@H](O)[C@H](O)[C@H]1O` [salicin] the phenotypic hit was inactive: 0.
With `C=C1CC[C@@H]2[C@](C)(CO)[C@H](O)CC[C@@]2(C)[C@@H]1C/C=C1/C(=O)OC[C@H]1O` [andrographolide] the phenotypic hit was inactive: 0.
